Reference: the supplement of paper PMC8728848
This is one part of the list.

Assays:
Experiment in all cases: glycan array binding signal (z-score within array); higher = stronger binding
Conditions in all cases: glycan notation: IUPAC condensed, linker removed
[1] = molecular target: Man(a1-2)Man(a1-6)[Man(a1-3)]Man(a1-6)[Man(a1-2)Man(a1-2)Man(a1-3)]Man(b1-4)GlcNAc(b1-4)GlcNAc
Summary of the method: (§1)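 From the Consortium for Functional Glycomics database, 3228 arrays were curated, keeping only those whose protein sequence was available. Binding is given as a within-array Z-score averaged across arrays sharing a protein sequence and across linkers. Negative Z-scores can be read as non-binding.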

Man(a1-3)[Man(a1-6)]Man = molecular target: Man(a1-3)[Man(a1-6)]Man
Summary of the method: as §1

[2] = molecular target: Man(a1-3)[Man(a1-6)]Man(a1-6)[Man(a1-2)Man(a1-3)]Man(b1-4)GlcNAc(b1-4)GlcNAc
Summary of the method: as §1

[3] = molecular target: Man(a1-3)[Man(a1-6)]Man(a1-6)[Man(a1-3)]Man
Summary of the method: as §1

[4] = molecular target: Man(a1-3)[Man(a1-6)]Man(a1-6)[Man(a1-3)]Man(b1-4)GlcNAc(b1-4)GlcNAc
Summary of the method: as §1

[5] = molecular target: Man(a1-3)[Man(a1-6)]Man(b1-4)GlcNAc(b1-4)GlcNAc
Summary of the method: as §1

Man(a1-6)Man = molecular target: Man(a1-6)Man
Summary of the method: as §1

Man(b1-4)GlcNAc = molecular target: Man(b1-4)GlcNAc
Summary of the method: as §1

Neu5Ac(a2-3)Gal = molecular target: Neu5Ac(a2-3)Gal
Summary of the method: as §1

[6] = molecular target: Neu5Ac(a2-3)Gal(b1-3)GalNAc
Summary of the method: as §1

[7] = molecular target: Neu5Ac(a2-3)Gal(b1-3)GalNAc(b1-3)Gal(a1-4)Gal(b1-4)Glc
Summary of the method: as §1

[8] = molecular target: Neu5Ac(a2-3)Gal(b1-3)GalNAc(b1-4)[Neu5Ac(a2-3)]Gal(b1-4)Glc
Summary of the method: as §1

[9] = molecular target: Neu5Ac(a2-3)Gal(b1-3)GalNAc6S
Summary of the method: as §1

[10] = molecular target: Neu5Ac(a2-3)Gal(b1-3)GlcNAc
Summary of the method: as §1

[11] = molecular target: Neu5Ac(a2-3)Gal(b1-3)GlcNAc(b1-2)Man(a1-3)[Neu5Ac(a2-3)Gal(b1-3)GlcNAc(b1-2)Man(a1-6)]Man(b1-4)GlcNAc(b1-4)GlcNAc
Summary of the method: as §1

[12] = molecular target: Neu5Ac(a2-3)Gal(b1-3)GlcNAc(b1-3)Gal(b1-3)GlcNAc
Summary of the method: as §1

[13] = molecular target: Neu5Ac(a2-3)Gal(b1-3)GlcNAc(b1-3)Gal(b1-4)GlcNAc
Summary of the method: as §1

[14] = molecular target: Neu5Ac(a2-3)Gal(b1-3)GlcNAc(b1-3)GalNAc
Summary of the method: as §1

[15] = molecular target: Neu5Ac(a2-3)Gal(b1-3)GlcNAc6S
Summary of the method: as §1

[16] = molecular target: Neu5Ac(a2-3)Gal(b1-3)[Fuc(a1-4)]GlcNAc
Summary of the method: as §1

[17] = molecular target: Neu5Ac(a2-3)Gal(b1-3)[Fuc(a1-4)]GlcNAc(b1-3)Gal(b1-3)[Fuc(a1-4)]GlcNAc
Summary of the method: as §1

[18] = molecular target: Neu5Ac(a2-3)Gal(b1-3)[Fuc(a1-4)]GlcNAc(b1-3)Gal(b1-4)[Fuc(a1-3)]GlcNAc
Summary of the method: as §1

[19] = molecular target: Neu5Ac(a2-3)Gal(b1-3)[Neu5Ac(a2-3)Gal(b1-4)]GlcNAc
Summary of the method: as §1

[20] = molecular target: Neu5Ac(a2-3)Gal(b1-3)[Neu5Ac(a2-6)]GalNAc
Summary of the method: as §1

Neu5Ac(a2-3)Gal(b1-4)Glc = molecular target: Neu5Ac(a2-3)Gal(b1-4)Glc
Summary of the method: as §1

[21] = molecular target: Neu5Ac(a2-3)Gal(b1-4)GlcNAc
Summary of the method: as §1

[22] = molecular target: Neu5Ac(a2-3)Gal(b1-4)GlcNAc(b1-2)Man(a1-3)[GlcNAc(b1-2)Man(b1-4)GlcNAc(b1-2)Man(a1-6)]Man(b1-4)GlcNAc(b1-4)GlcNAc
Summary of the method: as §1

[23] = molecular target: Neu5Ac(a2-3)Gal(b1-4)GlcNAc(b1-2)Man(a1-3)[Neu5Ac(a2-6)Gal(b1-4)GlcNAc(b1-2)Man(a1-6)]Man(b1-4)GlcNAc(b1-4)GlcNAc
Summary of the method: as §1

[24] = molecular target: Neu5Ac(a2-3)Gal(b1-4)GlcNAc(b1-3)Gal(b1-3)GlcNAc
Summary of the method: as §1

[25] = molecular target: Neu5Ac(a2-3)Gal(b1-4)GlcNAc(b1-3)Gal(b1-4)GlcNAc
Summary of the method: as §1

[26] = molecular target: Neu5Ac(a2-3)Gal(b1-4)GlcNAc(b1-3)Gal(b1-4)GlcNAc(b1-3)Gal(b1-4)GlcNAc
Summary of the method: as §1

[27] = molecular target: Neu5Ac(a2-3)Gal(b1-4)GlcNAc(b1-3)Gal(b1-4)[Fuc(a1-3)]GlcNAc
Summary of the method: as §1

[28] = molecular target: Neu5Ac(a2-3)Gal(b1-4)GlcNAc(b1-3)GalNAc
Summary of the method: as §1

[29] = molecular target: Neu5Ac(a2-3)Gal(b1-4)GlcNAc(b1-6)[Gal(b1-3)]GalNAc
Summary of the method: as §1

[30] = molecular target: Neu5Ac(a2-3)Gal(b1-4)GlcNAc(b1-6)[Neu5Ac(a2-3)Gal(b1-3)]GalNAc
Summary of the method: as §1

[31] = molecular target: Neu5Ac(a2-3)Gal(b1-4)GlcNAc6S
Summary of the method: as §1

[32] = molecular target: Neu5Ac(a2-3)Gal(b1-4)[Fuc(a1-3)]GlcNAc
Summary of the method: as §1

[33] = molecular target: Neu5Ac(a2-3)Gal(b1-4)[Fuc(a1-3)]GlcNAc(b1-3)Gal
Summary of the method: as §1

[34] = molecular target: Neu5Ac(a2-3)Gal(b1-4)[Fuc(a1-3)]GlcNAc(b1-3)Gal(b1-4)GlcNAc
Summary of the method: as §1

[35] = molecular target: Neu5Ac(a2-3)Gal(b1-4)[Fuc(a1-3)]GlcNAc(b1-3)Gal(b1-4)[Fuc(a1-3)]GlcNAc(b1-3)Gal(b1-4)[Fuc(a1-3)]GlcNAc
Summary of the method: as §1

[36] = molecular target: Neu5Ac(a2-3)Gal(b1-4)[Fuc(a1-3)]GlcNAc(b1-3)GalNAc
Summary of the method: as §1

[37] = molecular target: Neu5Ac(a2-3)Gal(b1-4)[Fuc(a1-3)]GlcNAc(b1-6)[Gal(b1-3)]GalNAc
Summary of the method: as §1

[38] = molecular target: Neu5Ac(a2-3)Gal(b1-4)[Fuc(a1-3)]GlcNAc(b1-6)[Neu5Ac(a2-3)Gal(b1-3)]GalNAc
Summary of the method: as §1

[39] = molecular target: Neu5Ac(a2-3)Gal(b1-4)[Fuc(a1-3)]GlcNAc6S
Summary of the method: as §1

[40] = molecular target: Neu5Ac(a2-3)Gal6S(b1-4)GlcNAc
Summary of the method: as §1

B1: SSL (Salmo salar) (protein)
chain: TGAKGAEEGVVPAETRNQCPTGWFQFGSRCFMFVETARSWPLAERHCVSLGANLASVHSSADDQFLQAIAGCKTGAFSTTWIGGFDAVQDRLWFWSDGSEFDYQNWAKGEPNNSGGREPCIVINWGDEYRWNDIKCGNSFPSVCSKRICEIQKN
[1]
  glycan array binding signal (z-score): -0.122
Man(a1-3)[Man(a1-6)]Man
  glycan array binding signal (z-score): -0.134
[2]
  glycan array binding signal (z-score): -0.138
[3]
  glycan array binding signal (z-score): -0.174
[4]
  glycan array binding signal (z-score): -0.159
[5]
  glycan array binding signal (z-score): -0.179
Man(a1-6)Man
  glycan array binding signal (z-score): -0.17
Man(b1-4)GlcNAc
  glycan array binding signal (z-score): -0.152
Neu5Ac(a2-3)Gal
  glycan array binding signal (z-score): -0.174
[6]
  glycan array binding signal (z-score): -0.163
[7]
  glycan array binding signal (z-score): -0.178
[8]
  glycan array binding signal (z-score): -0.181
[9]
  glycan array binding signal (z-score): -0.18
[10]
  glycan array binding signal (z-score): -0.173
[11]
  glycan array binding signal (z-score): -0.185
[12]
  glycan array binding signal (z-score): -0.157
[13]
  glycan array binding signal (z-score): -0.184
[14]
  glycan array binding signal (z-score): -0.171
[15]
  glycan array binding signal (z-score): -0.167
[16]
  glycan array binding signal (z-score): -0.181
[17]
  glycan array binding signal (z-score): -0.086
[18]
  glycan array binding signal (z-score): -0.154
[19]
  glycan array binding signal (z-score): -0.188
[20]
  glycan array binding signal (z-score): -0.153
Neu5Ac(a2-3)Gal(b1-4)Glc
  glycan array binding signal (z-score): -0.169
[21]
  glycan array binding signal (z-score): -0.177
[22]
  glycan array binding signal (z-score): -0.182
[23]
  glycan array binding signal (z-score): -0.175
[24]
  glycan array binding signal (z-score): -0.185
[25]
  glycan array binding signal (z-score): -0.187
[26]
  glycan array binding signal (z-score): -0.184
[27]
  glycan array binding signal (z-score): -0.179
[28]
  glycan array binding signal (z-score): -0.168
[29]
  glycan array binding signal (z-score): -0.183
[30]
  glycan array binding signal (z-score): -0.17
[31]
  glycan array binding signal (z-score): -0.181
[32]
  glycan array binding signal (z-score): -0.177
[33]
  glycan array binding signal (z-score): -0.182
[34]
  glycan array binding signal (z-score): -0.153
[35]
  glycan array binding signal (z-score): -0.126
[36]
  glycan array binding signal (z-score): -0.156
[37]
  glycan array binding signal (z-score): -0.155
[38]
  glycan array binding signal (z-score): -0.135
[39]
  glycan array binding signal (z-score): -0.184
[40]
  glycan array binding signal (z-score): -0.179
